According to the supplement of paper PMC11417369:
± gives the standard deviation of the averaged measurements. Some of the results follow.

The sequences below were run on PfAP2-G AP2 domain (GST-tagged) (assay: gcPBM binding intensity (ln(normalized median fluorescence intensity)); higher = stronger DNA binding).
In short: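 GST-tagged P. falciparum DNA-binding domains, expressed in E. coli (about 25 μg on average), were applied for 1 h to an Agilent 4 × 180k array of primer-extended double-stranded 36-bp intergenic genomic probes plus negative controls. The binding buffer was 1× PBS with 1% milk, 0.2 mg/ml BSA, 0.5% salmon testes DNA and 0.03% Triton X-100. Bound protein was detected with Alexa488 anti-GST antibody and scanned at 488 nm. Binding intensity is the highest Masliner-normalised natural-log median intensity across replicate spots of either probe orientation.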

| Sequence | gcPBM binding intensity (ln) |
| --- | --- |
| TATATATATATATGTGCACACATAAAGATATTATTT [CACACA_site3734] | 10.4 ± 0.26 |
| AAAAAAAAAAAACACACACACACACTAGTACATACA [CACACA_site4551] | 11.3 ± 0.72 |
| TACAATTTATGACACACACACAATAATACCTATATA [CACACA_site6704] | 10.4 ± 0.33 |
| AAATATATATACCACACACACATACCTCTATTTGTA [CACACA_site1854] | 10.195 ± 0.007 |
| TATAGTAAAATTAGGGTGCTTTTGTAACAAAAAAAA | 10.1 ± 0.3 |
| TTATTTTCTTTCTATGCACACGCACGTATTTGCCCA [CACACA_site9104] | 11 ± 0.76 |
| TGCTTCATAAATAAAACATGCAATATAGAAATTAAA [TGCATGCA_site690] | 9.885 ± 0.064 |
| TTTATATAGAAAAATTGTACGAATTACTTTTTTATA [XGTACX_site6843] | 10.7 ± 0.46 |
| TATAGCATATTTCACACACACATAATGAATATTATA [CACACA_site3545] | 9.82 ± 0.13 |
| AATAAAAAAATAAAAAAAAAAAAAAATAAAAAAAAA [GTGCAC_negctrl_site12] | 9.55 ± 0.099 |
| CGTATTTTAATATTTACACACTTATTTTTTATATAA [CACACA_site125] | 10.115 ± 0.007 |
| TTTTGTAAAAGGTATATATATATATATATATATATA [GTGCAC_negctrl_site734] | 9.91 ± 0.59 |
| TTTAACGTTGAATATACACACATATATTTATTTATA [CACACA_site7695] | 9.79 ± 0.014 |
| AAAATGTACTTTTTCTAAAGAGTAATGATGCTTGAT [CACACA_negctrl_site1124] | 11.6 ± 1 |
| AATCCTTTAAAACACACACACAAAAAAAAAAAAAAA [CACACA_site642] | 9.87 ± 0.31 |
| AAATGGACCTAATTATCACACATTATACTCGTTTTC [CACACA_site5996] | 10.6 ± 0.43 |
| TACAAAAAAAGATGATGTACAATGAAAAATAAGAAA [XGTACX_site5840] | 11 ± 0.39 |
| AAAAAAAAAAAAAACACACACACAAATACAAATACA [CACACA_site414] | 10.1 ± 0.35 |
| ATAAATAATTGTAGTTGTACATGATATTTTTATTAC [XGTACX_site550] | 11.1 ± 0.63 |
| AAAATAAATAAATATACACACCATATATATATTTTT [CACACA_site5573] | 9.63 ± 0.099 |
| ATATATCATAATAAAAGTACTTATATATTTTATATA [XGTACX_site560] | 11.2 ± 0.84 |
| TTATTATTCCCTCATTTTGTTACCATTATTTCAATT [CACACA_negctrl_site1023] | 10.35 ± 0.021 |

| Sequence | gcPBM binding intensity (ln) |
| --- | --- |
| TTAAAATTTTTTTTTTTTTTTTTTTTTTTTTTTTTC [CACACA_negctrl_site957] | 9.41 ± 0.19 |
| ATATTTATAACTTGTACACACAAATATGCATATATA [CACACA_site7583] | 11.4 ± 0.74 |
| TTGTTAAAATTATTAAGTTAAATATCGATTTGTAAA [XGTACX_negctrl_site429] | 9.52 ± 0.16 |
| TATAAGTTTATATATACACACATATATATATATATA [CACACA_site3274] | 10.3 ± 0.81 |
| AAAATAAAAAGAAAAAATAAAAAGAAAAAATAAAAA [CACACA_negctrl_site120] | 9.34 ± 0.26 |
| TTATATAATCCTTTCAAACACACAAAATATAATTAA [CACACA_site1830] | 9.98 ± 0.11 |
| AAAAAAAATATAAGTGGTACTCACATAAAGACATAT [XGTACX_site3709] | 11.3 ± 0.84 |
| AAATAAAATACATATAAACACACATATAAACCAACA [CACACA_site8789] | 10.2 ± 0.15 |
| TTTTTAGTTCATTAAACACACAAAAAAAAAAATAAA [CACACA_site6035] | 9.97 ± 0.29 |
| TTTTTTATTCTTTTTGCACACAGGAAATTTACAGAT [CACACA_site1090] | 10.3 ± 0.35 |
| TAATACTTTTAATCTACACACGCTGAGACATGCTTT [CACACA_site1484] | 10.2 ± 0.16 |
| AGTGAAAAAAAATTTACACACATAAAATATAAACGA [CACACA_site3724] | 10.005 ± 0.007 |
| GAATGCATGTAAATATGTACATATATTTAAAAATTT [XGTACX_site6032] | 11.3 ± 0.89 |
| TGTTAAAAGGTTAAATTAAAATAACCTCCGGAAATT [GTGCAC_negctrl_site236] | 9.735 ± 0.049 |
| ACATATAAATTGTGTACACATATATATATATTTTTT [CACACA_site5946] | 11.8 ± 1 |
| ATAAATATATATTTACGTACATATTATATATATATA [XGTACX_site6172] | 11.4 ± 0.79 |
| AAAAAAATTTCACATTGTACTTTAATAATATACTAC [XGTACX_site7264] | 11.2 ± 0.8 |
| TTCATAATAAAAAGGTGTACATATATATATATATAT [XGTACX_site2829] | 11.5 ± 0.92 |
| AAGCATTTAATGTTTTATATAACATGTATTTTTTAT [CACACA_negctrl_site673] | 9.86 ± 0.071 |
| GTTTTGTACATATTCTCACACATATAAAAATACCCA [CACACA_site4446] | 11.2 ± 0.83 |
| TGTTCTATGATTTGTACACACTTTTTTTTAAAATGC [CACACA_site5558] | 11.4 ± 0.88 |
| TATATATACATATACACACACACACCGATATATATA [CACACA_site8706] | 10.1 ± 0.26 |

| Sequence | gcPBM binding intensity (ln) |
| --- | --- |
| TTTATATGTATACAAACATATAAATATAAATGTATT [TGCATGCA_negctrl_site346] | 9.675 ± 0.078 |
| TAAATTCTTTATAATCGTACATAAATAGAAAAATAA [XGTACX_site601] | 11.2 ± 0.97 |
| TAAAAGAAATAATATACACACATATATAAAAATAAA [CACACA_site1329] | 9.87 ± 0.085 |
| TAAAATGAATATAGGTGTACTTAAAAAAAAGTAAAA [XGTACX_site4613] | 11.6 ± 0.86 |
| TTCAAATAATTTAAATGTACGTTGCTTTATTAAAAG [XGTACX_site3674] | 11.1 ± 0.69 |
| CATGTATACTATAATACACACTATAAAATATACACC [CACACA_site7121] | 10.3 ± 0.16 |
| TATCGAGCCATTTTTACATGCAATTATACATAATTT [TGCATGCA_site987] | 9.87 ± 0.057 |
| AAAACATGTTCAACATGTACACAACAGGATGAATAT [XGTACX_site506] | 11.2 ± 0.64 |
| ATAAATAATAAAAAATGTACACATATAAATATAAAG [XGTACX_site727] | 11.4 ± 0.64 |
| ATGATGAAAATAGAAATACACACTAAAAAATAAAAT [CACACA_site1136] | 9.97 ± 0.042 |
| TTTTACTAAATATATACACACATTATACATATATAT [CACACA_site9081] | 10.2 ± 0.12 |
| CTTACTTACTTACTCACACACATATACAAAGAAAAA [CACACA_site3347] | 10.4 ± 0.3 |
| AAATATATGTTATATGTGCACTTTTTTTTTTTTTTT [GTGCAC_site9667] | 10.7 ± 0.47 |
| TATATAACCGAGTGCACACACAAAAAAAAAGTGAAC [CACACA_site6806] | 10.7 ± 0.55 |
| AGGAAACAAGAAATGAAGAATCATGTAGAAGGCCCA [GTGCAC_negctrl_site187] | 9.68 ± 0.099 |
| TATTAAATATTGTATACATGCAAATACTAGAAAATT [TGCATGCA_site370] | 10.17 ± 0.085 |
| AATAATATAAATATTACACACTAATTGTATTATAGA [CACACA_site6347] | 9.95 ± 0.13 |
| ATGATGTGCTTTAAAAGTACTTAAGTTATATTCTTT [XGTACX_site7127] | 11 ± 0.64 |
| AAAATTAAAATTTTCACACAGATATATTTACAATTT [CACACA_site5692] | 9.78 ± 0.014 |
| ATATTACGCACAAAAAAAAAAAAAAAAAAAAAAAAA [CACACA_negctrl_site941] | 10.2 ± 0.64 |
| AATTACAAATATTCATGTACATATTTATAAATACAT [XGTACX_site5430] | 11.2 ± 0.73 |
| ATATATATATATATGTGTACATATATTAAGATATAT [XGTACX_site1065] | 11.4 ± 0.94 |

| Sequence | gcPBM binding intensity (ln) |
| --- | --- |
| ATATTATAGAAATATACACACATTGTTTTATAGCAT [CACACA_site7177] | 9.79 ± 0.16 |
| TATGTTATATAATATTGTACACAAAATGGTTTCTAT [XGTACX_site7686] | 11.5 ± 1 |
| TAAATTAAAAAAAATACACACACACCGACACATATA [CACACA_site9084] | 10.4 ± 0.28 |
| TTCGTAACTGATTCAACACACAAAAGGGGGAAAATT [CACACA_site1754] | 10.9 ± 0.59 |
| AAAAAGAAGAATAATACACACAAATTACTTTATATA [CACACA_site6984] | 9.785 ± 0.064 |
| CATAAAAATATTAATAAACACACAATCAGATATTGA [CACACA_site9032] | 9.825 ± 0.049 |
| AAATATATATAAACAAGTACATATTTAAAAAAAGGA [XGTACX_site2631] | 11.3 ± 0.74 |
| AGGTATGTCTATAAATGTACATATGAGTTCAATTTC [XGTACX_site2244] | 11 ± 0.49 |
| CACAGTGATATAAAAACACACATGAATTCTAATTTC [CACACA_site6884] | 9.75 ± 0.16 |
| TAAAGTTATGCAATAACACACATATACAATACATAT [CACACA_site6698] | 9.98 ± 0.057 |
| AATATTTATATAAATGCATGCTGATACAACAGTCTT [TGCATGCA_site21] | 10.1 |
| ATATATATGAAACACACACACAAAAAAAAAAAAAAA [CACACA_site3647] | 9.8 ± 0.47 |
| ATAACACAAAATTGTTGTACACGTGTTAATAAGTGA [XGTACX_site4452] | 11.6 ± 0.73 |
| AAATTTGGCAGACACACACACACACGCACACGCACA [CACACA_site6423] | 10.5 ± 0.27 |
| TGAATAAATATATATACACACATATCTGTATTTATT [CACACA_site4991] | 9.59 ± 0.21 |
| TATATATATACCAACACACATACATATATATATATA [CACACA_site1795] | 10 ± 0.33 |
| CCCTCCCCATGTTTAGTGCAAAAATATTTGAAATTG [GTGCAC_site9873] | 11.2 ± 0.58 |
| TATGAAATTAGAATTACACACAGGAAAATAAAATGC [CACACA_site6822] | 10.15 ± 0.035 |
| TGAACTCATAGGAAAACACACATATGGGTAATATAT [CACACA_site187] | 10.1 ± 0.014 |
| ATTTTCCTTTTACCACGTACACATAAAAACGTTATA [XGTACX_site3595] | 11.5 ± 0.9 |
| TTTGCGTAGAAATGTGTGCACTGATATTTATAATAA [GTGCAC_site9526] | 10.4 ± 0.36 |
| AAAAAAAATCAAATGGGTACTTATTCTTAATAATAT [XGTACX_site3792] | 11.1 ± 0.67 |
